Source: PubChem BioAssay AID485294 (National Center for Advancing Translational Sciences (NCATS), 2010)
In all, about 370,000 compounds went through this assay and about 150 (0.041%) were called active. The inconclusive results got no clear call from the source; some entries with a clear call stand among them for comparison. The call rests on the fitted dose curve; in most records, active means well fitted inhibition curve with a large enough effect; inconclusive means small, poorly fitted or top-dose-only effect; inactive means flat fitted curve, though single readings scatter. No potency is given beside an inconclusive call; the fits are too rough.

Molecular target: Beta-lactamase (Escherichia coli (strain K12)) (UniProt P00811)
Chain of UniProt P00811 (P00811 whole entry, looked up): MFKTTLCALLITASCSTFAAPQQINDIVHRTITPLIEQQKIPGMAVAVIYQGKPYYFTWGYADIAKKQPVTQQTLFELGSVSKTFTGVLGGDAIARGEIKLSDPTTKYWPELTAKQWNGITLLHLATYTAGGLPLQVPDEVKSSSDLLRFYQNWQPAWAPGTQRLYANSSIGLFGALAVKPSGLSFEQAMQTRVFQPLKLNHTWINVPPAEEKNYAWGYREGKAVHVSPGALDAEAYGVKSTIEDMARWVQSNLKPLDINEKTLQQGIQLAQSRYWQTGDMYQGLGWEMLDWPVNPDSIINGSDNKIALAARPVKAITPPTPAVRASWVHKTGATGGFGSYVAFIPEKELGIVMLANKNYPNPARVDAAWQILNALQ
Experiment: qHTS Inhibitors of AmpC Beta-Lactamase (assay with detergent); further: nearly all actives have a fitted effect of over 25% in size
Details: AmpC hydrolysis of nitrocefin, absorbance 480 nm, 0.01% Triton; series mostly up to 114 µM
Procedure, shortened: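 20 mM phosphate pH 7.0 + 0.01% (detergent screen) or 0.0001% Triton X-100; 5.3 nM AmpC reagent; cpd preinc 15 min RT; nitrocefin (800 uM stock) to start; A480 q20 s × 4 min; Activity was normalised to no-enzyme and no-compound control wells.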
Potency means the concentration at half of the fitted maximal effect; tags describe the fitted curve by direction and shape.

| Structure (SMILES) | Potency |
| --- | --- |
| Cc1ccc(S(=O)(=O)CCC(=O)OCC(=O)N(C)CC(=O)Nc2ccc(F)cc2)cc1 | inconclusive [inhibitor, partial curve] |
| COc1cccc(NC(=S)NCc2ccccc2)c1 | inactive |
| Cc1c(-c2ccc(O)cc2)nc2nc(-c3ccccc3)c(-c3ccccc3)nn12 | inactive |
| CC(C)Sc1ncc(Cl)c(C(=O)Nc2nnc(C(C)C)s2)n1 | inactive |
| COc1ccc2[nH]c(=O)c(CN(C(C)=O)c3ccc(C)c(C)c3)cc2c1 | inconclusive [inhibitor, partial curve, poor fit] |
| CN1CCN(Cc2ccc3ccccc3c2)CC1 | inactive |
| COc1ccc(N2CSC3=C(C#N)C(c4cc(OC)ccc4OC)CC(=O)N3C2)c(OC)c1 (configuration not stated) | inconclusive [inhibitor, full curve, poor fit] |
| COc1ccccc1Oc1ccc(S(=O)(=O)N2CCN(C)CC2)cc1 | inconclusive [inhibitor, full curve, poor fit] |
| CCCN(CCC)S(=O)(=O)c1ccc(C(=O)NCc2ccc3c(c2)OCO3)cc1 | inconclusive [inhibitor, full curve, poor fit] |
| O=S1(=O)N=C(N2CCOCC2)c2ccccc21 | inconclusive [inhibitor, partial curve, poor fit] |
| CCCCCCN=Cc1c(O)n(C)c(=O)n(C)c1=O | inconclusive [inhibitor, full curve, poor fit] |
| O=c1cc(-c2ccccc2)cc(-c2ccccc2)n1CCO | inconclusive [inhibitor, full curve, poor fit] |
| N#Cc1ccc(C(=O)OCc2cccc(S(=O)(=O)N3CCOCC3)c2)cc1 | inconclusive [inhibitor, partial curve, poor fit] |
| COc1ccc(-c2cc(=O)oc3c(C)c(O)c(CN(C)C)cc23)cc1 | inconclusive [inhibitor, full curve] |
| COc1ccc(O)c(CN2CCN(CCCc3ccccc3)C(CCO)C2)c1 (configuration not stated) | inactive |
| O=S(=O)(Nc1ccc(-c2nc3cccnc3s2)cc1)c1ccccc1F | inactive |
| CCN1C(=O)c2cccc3c(Cl)ccc1c23 | inconclusive [inhibitor, full curve] |
| N/C(=N\OC(=O)CSc1ccccc1)c1cccc([N+](=O)[O-])c1 | inconclusive [inhibitor, partial curve, poor fit] |
| COc1ccc(/C=C/C(=O)Nc2c(C)nn(C)c2C)cc1COc1ccc(Cl)cc1Br | inconclusive [inhibitor, partial curve, poor fit] |
| O=C1C2CC=CCC2C(=O)N1c1ccc(OCC(O)Cn2nnc3ccccc32)cc1 (configuration not stated) | inactive |
| Cc1nnc(NC(=O)C2CCCN(c3ncccn3)C2)s1 (configuration not stated) | inconclusive [inhibitor, full curve] |
| O=C(Nc1cc2c3c(c1)CC(=O)N3CCC2)c1ccc(Br)cc1 | inconclusive [inhibitor, single point] |
| O=C(N/N=C(\c1ccccc1)c1cccnc1)c1cccc(F)c1 | inactive |
| COc1ccc(CCNC(=O)[C@H](C)N2C(=O)N3CCc4c([nH]c5ccccc45)[C@@]3(C)C2=O)cc1 | inconclusive [inhibitor, partial curve, poor fit] |

| Structure (SMILES) | Potency |
| --- | --- |
| C=CCC(CC=C)(CNC(=O)C(=O)Nc1cccc(C(F)(F)F)c1)c1ccccc1 | inactive |
| O=C(NCCc1ccccc1)c1cc2sccc2n1Cc1ccccc1 | inactive |
| COc1ccc(CCN(Cc2cccs2)S(=O)(=O)c2ccc(S(=O)(=O)N3CCCCCC3)cc2)cc1OC | inconclusive [inhibitor, partial curve] |
| O=C(CN(Cc1ccccc1F)S(=O)(=O)c1ccc(Cl)cc1)NCCCO | inconclusive [inhibitor, full curve] |
| Cc1ccc(NC(=O)C2CCCN2S(=O)(=O)c2ccc3c(c2)CCCC(=O)N3)cc1C (configuration not stated) | inactive |
| Cc1ccc([N+](=O)[O-])cc1NC(=O)c1ccccc1 | inactive |
| Cc1cccc(OCC(=O)N2CCN(C(=O)c3ccc([N+](=O)[O-])cc3)CC2)c1 | inactive |
| COc1ccc(-c2cccc(NS(=O)(=O)c3cc(C)c(OC)c(C)c3C)c2)nn1 | inactive |
| COc1ccc(N2C(=O)CC(N(C)CCc3ccc(OC)c(OC)c3)C2=O)cc1 (configuration not stated) | inactive |
| O=C(NC1CC1)C1C2C3C4CC5C3C5C4C12 (configuration not stated) | inactive |
| CCOc1ccc(N2C(=O)CC(SC(=NC)Nc3ccc4c(c3)OCO4)C2=O)cc1 (configuration not stated) | inconclusive [inhibitor, single point] |
| CC(C)=C1C(=O)NN(c2ccc(C)c(Cl)c2)C1=O | inconclusive [inhibitor, partial curve, poor fit] |
| O=C(COc1ncnc2scc(-c3ccc(Cl)cc3)c12)NCc1ccco1 | inactive |
| Cc1ccc2cc(CN(Cc3cccs3)Cc3nnnn3CC3CCCO3)c(=O)[nH]c2c1C (configuration not stated) | inconclusive [inhibitor, single point] |
| CC(C)(C)c1ccc(OCCn2ccccc2=O)cc1 | inactive |
| CCc1noc(C)c1C(=O)N1CC(C)OC(C)C1 (configuration not stated) | inconclusive [inhibitor, full curve, poor fit] |
| O=C(O)C1CC=CCC1C(=O)Nc1ccccc1C(=O)N1CCN(c2ccc(F)cc2)CC1 (configuration not stated) | inconclusive [inhibitor, partial curve] |
| CN(C)S(=O)(=O)c1cccc(-c2nnc(SCc3cc(Cl)cc4c3OCOC4)n2N)c1 | inconclusive [inhibitor, partial curve] |
| COc1ccc(C(=O)CCc2nc3ccccc3s2)cc1 | inconclusive [inhibitor, partial curve, poor fit] |
| O=C(CN1CCOCC1)Nc1cc(Cl)ccc1Cl | inconclusive [inhibitor, full curve, poor fit] |
| COc1cc2nc(CN3CCC(Cc4ccccc4)CC3)[nH]c(=O)c2cc1OC | inconclusive [inhibitor, single point] |
| CCc1ccccc1NC(=O)c1ccc(-n2c(C)ccc2C)cc1 | inactive |
| CC(C)CN(C(=O)c1ccc(N2CCCC2=O)cc1)C1CCS(=O)(=O)C1 (configuration not stated) | inconclusive [inhibitor, full curve, poor fit] |
| O=C(O)c1cccc(S(=O)(=O)N2CCCC2)c1 | inconclusive [inhibitor, full curve] |

| Structure (SMILES) | Potency |
| --- | --- |
| CC(=O)Nc1ccc(S(=O)(=O)Nc2ccc(=O)n(Cc3ccc(Cl)c(Cl)c3)c2)cc1 | inconclusive [inhibitor, partial curve] |
| CN(CCc1cnn(C)c1)Cc1cn[nH]c1-c1ccc(-c2ccccc2)cc1 | inactive |
| Cc1nnc(NC(=O)CSc2ccccn2)s1 | inconclusive [inhibitor, partial curve, poor fit] |
| OC(CNCCC1C=Nc2ccccc21)Cn1c2ccc(Cl)cc2c2cc(Cl)ccc21 (configuration not stated) | inactive |
| CCNC(=O)CSc1nnc(-c2cccc(S(=O)(=O)N3CCOCC3)c2)o1 | inactive |
| CCC(C(=O)Nc1ccccc1C(=O)OC)n1nc(C)c2c(C)n(-c3ccc(C)cc3)nc2c1=O (configuration not stated) | inconclusive [inhibitor, single point] |
| Cn1c(SCC(=O)c2ccc(F)cc2)ncc(C(=O)Nc2ccccc2)c1=O | inconclusive [inhibitor, full curve, poor fit] |
| CCN(C(=O)c1cnc2scc(C)n2c1=O)c1ccccc1C | inconclusive [inhibitor, full curve, poor fit] |
| C/C(CC(=O)Nc1ccc(N(C)C)cc1)=N\NC(=O)c1ccc([N+](=O)[O-])cc1Cl | inactive |
| CC(=O)Oc1c(-c2ccc(Br)o2)oc2ccccc2c1=O | inactive |
| O=C(c1ccccc1)c1nc[nH]c1C(=O)Nc1ccccn1 | inconclusive [inhibitor, full curve, poor fit] |
| CCCCN(CC)CCNC(=O)c1cn(-c2ccc(Cl)cc2)c(=O)c2ccccc12 | inconclusive [inhibitor, partial curve, poor fit] |
| O=C(NCc1cccnc1)Nc1ccccc1Cl | inconclusive [inhibitor, full curve, poor fit] |
| O=C(Cc1ccc(S(=O)(=O)N2CCCC2)s1)N1CCN(c2ccccc2)CC1 | inactive |
| O=C(CCc1ccccc1)Nc1cc2c3c(c1)CC(=O)N3CCC2 | inconclusive [inhibitor, single point] |
| Cc1ccc(C(=O)Nc2nnc(C)s2)cc1 | inactive |
| COc1cc(OC)c(C2Nc3ccccc3-c3nnc(SCc4ccccc4)nc3O2)cc1OC (configuration not stated) | inactive |
| N#C/C(=C\c1ccc(OCc2ccccc2)cc1)C(N)=O | inactive |
| Cc1ccc(NC(=O)C2CCN(S(=O)(=O)c3ccc4c(c3)OCCCO4)CC2)nc1 | inactive |
| O=C1c2ccccc2C(=O)C1c1ccc(O)cc1 | inactive |
| Cn1c(=O)c2c(nc(NCc3ccccc3)n2CCCc2ccccc2)n(C)c1=O | inconclusive [inhibitor, full curve, poor fit] |
| CC(=O)c1cccc(NC(=O)Nc2ccccc2)c1 | inactive |
| Cn1cc(C(=O)N2CCc3ccccc3C2)c(=O)c2cc(S(=O)(=O)N3CCCCC3)ccc21 | inconclusive [inhibitor, partial curve, poor fit] |
| O=C(CCS(=O)(=O)c1ccc(F)cc1)Nc1nnc(-c2cccs2)o1 | inactive |
